The densities may have been worked out from excess volumes.
Test: xn = mol fraction of the nth substance listed
Details: 101 kPa

C=CC(=O)OC + CCCC[n+]1ccn(C)c1.F[B-](F)(F)F
mass density [kg/m3]
Details	293.15 K	298.15 K	303.15 K	308.15 K	313.15 K	318.15 K
x2 = 0	955.4	–	943.1	936.9	–	–
x2 = 0.0694	989.8	984.1	978.4	972.6	966.9	961
x2 = 0.1387	–	1014.7	1009.3	1003.9	–	993.1
x2 = 0.1889	1039.6	1034.5	1029.4	1024.3	1019.1	1013.8
x2 = 0.239	1057.5	1052.7	1047.8	1042.8	–	1032.7
x2 = 0.3354	1087.8	1083.4	–	1074.3	1069.6	–
x2 = 0.4317	1113.7	1109.7	–	1101.1	1096.7	1092.1
x2 = 0.5005	1129.9	1126	1122.1	1117.9	1113.7	1109.2
x2 = 0.5693	1144.3	1140.7	1136.9	1132.9	1128.8	1124.5
x2 = 0.6532	1160	1156.5	1152.9	1149.1	1145.2	–
x2 = 0.737	1173.7	1170.4	1166.9	1163.3	1159.6	1155.6
x2 = 0.7927	1181.8	1178.6	1175.2	1171.7	1168	1164.1
x2 = 0.8484	1189.1	1186	1182.7	–	1175.6	1171.8
x2 = 0.9242	–	1194.9	1191.7	1188.3	1184.7	–

CCCC[n+]1ccn(C)c1.F[B-](F)(F)F + C=CC(=O)OC
x1 = 1
Details	mass density [kg/m3]
293.15 K	1205.6
298.15 K	1202.6
308.15 K	1195.9
318.15 K	1188.3
